Measured values: the RNAGym collection of RNA variant scans (doi:10.1073/pnas.2313332121)
This sample is rich in variants without activity.

B1: TPR 5TU (parent)
chain: GGAUCUUCUCGAUCUAACAAAAAAGACAAAUCUGCCACAAAGCUUGAGAGCAUCUUCGGAUGCAGAGGCGGCAGCCUUCGGUGGCGCGAUAGCGCCAACGUUCUCAACUAUGACACGCAAAACGCGUGCUCCGUUGAAUGGAGUUUAUCAUG

Variants of: B1
Assay: polymerase ribozyme fitness, log enrichment relative to wild type (log ratio); higher = more active; in vitro selection for triplet polymerase activity
Method in brief: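 Input and output libraries were sequenced on Illumina after a single in vitro selection round, run in triplicate on PCR-built, transcribed mutant libraries of each subunit of a heterodimeric triplet polymerase ribozyme. Selection annealed libraries to a biotinylated primer, the partner subunit and triplets, incubated them frozen at −7 °C, then gel-excised extended constructs for streptavidin-bead capture and RT-PCR. Genotypes with ≥10 input reads and ≥1 read per output were kept. Fitness is the logarithm, taken in base 2, of genotype enrichment divided by wild-type enrichment, using inverse-variance-weighted replicate averages.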

G11A A19U A28U A60C G84A C103G and C10U A30G U33G U45A G46C C57A C75U U139A cannot be ordered by “polymerase ribozyme fitness (log ratio)” value: at most -4.2 for the first, at most -4.2 for the second.

C10U U45C C63U U77C C87G A89U and C10G A52U C54U C57U G59C C63G G68U U78G G83U C96U A98U cannot be ordered by “polymerase ribozyme fitness (log ratio)” value: at most -4.2 for the first, at most -4.2 for the second.

C10A A16U A21C A91U C105U and C10G G59C G80A C93A cannot be ordered by “polymerase ribozyme fitness (log ratio)” value: at most -4.2 for the first, at most -4.2 for the second.

G11A G25U A39C C87U C105G G133C and U9G G25C A47G C87A G92U C114A cannot be ordered by “polymerase ribozyme fitness (log ratio)” value: at most -4.2 for the first, at most -4.2 for the second.

G11C A17U G50C A89C G94U U148G and C10G U109C A137C cannot be ordered by “polymerase ribozyme fitness (log ratio)” value: at most -4.2 for the first, at most -4.2 for the second.

C10U C27U U55A G59C G84A and C10G A20U C72G G84A A97G A98G A110U U151A cannot be ordered by “polymerase ribozyme fitness (log ratio)” value: at most -4.2 for the first, at most -4.2 for the second.

G11A C14U G84C and C10U A39G G59C G71A U101C A115G G140U cannot be ordered by “polymerase ribozyme fitness (log ratio)” value: at most -4.2 for the first, at most -4.2 for the second.

C10U A23C U31C C57A G80C A107U U145A and C10G G11U A21C C27G C57U C85U C96A G117A C129A U144G cannot be ordered by “polymerase ribozyme fitness (log ratio)” value: at most -4.2 for the first, at most -4.2 for the second.

C10U C36U C63A C118U and U9G U15C C87G A113G A142G cannot be ordered by “polymerase ribozyme fitness (log ratio)” value: at most -4.2 for the first, at most -4.2 for the second.

Going from U9G A37U C57U C85U G128A G141A U146A to U9G C32A U55A C57U C93G A142C U148C, the “polymerase ribozyme fitness (log ratio)” value rises from at most -4.2 to -4.04.

U9G G11U C38U G50C A106U G136U and U9G A39G A40U G48C C75A C93U cannot be ordered by “polymerase ribozyme fitness (log ratio)” value: at most -4.2 for the first, at most -4.2 for the second.

Compared with G11A C51U U55A U56G A142C, C10A G59C U144G is lower in “polymerase ribozyme fitness (log ratio)” value: -3.56 for the first, at most -4.2 for the second.

C10G U15C C69A and C10U U31A G46C A60G G83U A91U U139C cannot be ordered by “polymerase ribozyme fitness (log ratio)” value: at most -4.2 for the first, at most -4.2 for the second.

C10A A47C G83A and C10G A17C A28U A64U C93U cannot be ordered by “polymerase ribozyme fitness (log ratio)” value: at most -4.2 for the first, at most -4.2 for the second.

G11C A22C A29U C32G C54A G92A U102C U134G U145C and G11C A17C C27A C32G U61A G84U C85U U109A G117A A121U G133U cannot be ordered by “polymerase ribozyme fitness (log ratio)” value: at most -4.2 for the first, at most -4.2 for the second.

C10G C54U G80U C87G A89G A91C U144C and C10U C32U G68U G74A U78A G92A C125A G140U U145G cannot be ordered by “polymerase ribozyme fitness (log ratio)” value: at most -4.2 for the first, at most -4.2 for the second.

First: C10A A106G G126U
Second: G11A A60G A106G
The “polymerase ribozyme fitness (log ratio)” value of the first is lower: at most -4.2 for the first, -0.626 for the second.

C10G G68A C79G and G11C A52U C96U A107G G136U cannot be ordered by “polymerase ribozyme fitness (log ratio)” value: at most -4.2 for the first, at most -4.2 for the second.

C10G A91G A97G C108A C118G and C10G C54U G94C cannot be ordered by “polymerase ribozyme fitness (log ratio)” value: at most -4.2 for the first, at most -4.2 for the second.

U9G A23U G34C C57A C93A and G11A A21G A23C C54U G70C C76A G83U cannot be ordered by “polymerase ribozyme fitness (log ratio)” value: at most -4.2 for the first, at most -4.2 for the second.

G11A G50C U56A G58C A98U and C10A C14U C57A G83C cannot be ordered by “polymerase ribozyme fitness (log ratio)” value: at most -4.2 for the first, at most -4.2 for the second.

U9G A21G U45C U53A C123U and U9G C36U cannot be ordered by “polymerase ribozyme fitness (log ratio)” value: at most -4.2 for the first, at most -4.2 for the second.

C10U G11A A19U U55A C75G G83U and C10U A12U C54A A60G C96G A115G G117U A147U cannot be ordered by “polymerase ribozyme fitness (log ratio)” value: at most -4.2 for the first, at most -4.2 for the second.

G11A C43A U82G G88C U145G and C10G U78G C85G U109C G140U cannot be ordered by “polymerase ribozyme fitness (log ratio)” value: at most -4.2 for the first, at most -4.2 for the second.

U9C U33G A52C C93G A110U and U9G A107C cannot be ordered by “polymerase ribozyme fitness (log ratio)” value: at most -4.2 for the first, at most -4.2 for the second.

C10U C51U C54U G94U C116G U130A U145A and C10G A30U U45C C75U G88C G143C cannot be ordered by “polymerase ribozyme fitness (log ratio)” value: at most -4.2 for the first, at most -4.2 for the second.

C10A C35G C87U G112U C114U C118U and C10A C27A G65C C96A A115U cannot be ordered by “polymerase ribozyme fitness (log ratio)” value: at most -4.2 for the first, at most -4.2 for the second.

C10G A12U G50U U61A C99A G141U and G11C A26U A52C G58A G84U cannot be ordered by “polymerase ribozyme fitness (log ratio)” value: at most -4.2 for the first, at most -4.2 for the second.

C10G C57A C96A and U9G U15G C27G U31A C38A A66C G67A C87U C99G G143C cannot be ordered by “polymerase ribozyme fitness (log ratio)” value: at most -4.2 for the first, at most -4.2 for the second.

C10G A30U C43U C57U C79G U146A and G11C A39G C57G C96U G141U cannot be ordered by “polymerase ribozyme fitness (log ratio)” value: at most -4.2 for the first, at most -4.2 for the second.

C10G A22G U44A G80C and C10G G84C cannot be ordered by “polymerase ribozyme fitness (log ratio)” value: at most -4.2 for the first, at most -4.2 for the second.

C10U C57U C95G C96A G126C G140C and C10A A12U C32U C79U G80C C85A cannot be ordered by “polymerase ribozyme fitness (log ratio)” value: at most -4.2 for the first, at most -4.2 for the second.

C10U C69U A147C U148G C149G and C10A G58A C79U C85U G88U cannot be ordered by “polymerase ribozyme fitness (log ratio)” value: at most -4.2 for the first, at most -4.2 for the second.

U9G C18U U33G G74C C103G C118U C131A C149U and C10A G59A C63U C93G G140U cannot be ordered by “polymerase ribozyme fitness (log ratio)” value: at most -4.2 for the first, at most -4.2 for the second.

C10G U13G C87U C125U and C10A C54A A91C C105A C129A G143C cannot be ordered by “polymerase ribozyme fitness (log ratio)” value: at most -4.2 for the first, at most -4.2 for the second.

C10G A22G C51A U53A C54A C72A and U9C U15A G25U G86U C131G cannot be ordered by “polymerase ribozyme fitness (log ratio)” value: at most -4.2 for the first, at most -4.2 for the second.

C10G G46A U90C C93U C108A U151G and C10G A49C U109G cannot be ordered by “polymerase ribozyme fitness (log ratio)” value: at most -4.2 for the first, at most -4.2 for the second.

G11A C35A G58A G68C G86A G92U A107U A137G and U9G C36A U82A C96U C118U cannot be ordered by “polymerase ribozyme fitness (log ratio)” value: at most -4.2 for the first, at most -4.2 for the second.

U9G C51U A110G C114A A138C and C10G G62C G65C C93U A121G cannot be ordered by “polymerase ribozyme fitness (log ratio)” value: at most -4.2 for the first, at most -4.2 for the second.

C10U U53C U55A G86A G88C and C10U A22C C36A A49C U53C C57G G58A G86U C93U G117U cannot be ordered by “polymerase ribozyme fitness (log ratio)” value: at most -4.2 for the first, at most -4.2 for the second.

U9G C27G A28G C93A G141U and G11A A23U A29U A41C G50A U101A U102A A121G U135G cannot be ordered by “polymerase ribozyme fitness (log ratio)” value: at most -4.2 for the first, at most -4.2 for the second.

With C10A C36A G71U U127G U146A the “polymerase ribozyme fitness (log ratio)” value was at most -4.2.
